In PubChem BioAssay AID1030 (National Center for Advancing Translational Sciences (NCATS), 2008):
Out of some 220,000 compounds screened, about 16,000 (7.3%) were called active. Inconclusive means that the source gave no clear call. Such entries were picked first, then a sample of the others. Calls come from the whole dose curve; as a rule, active = well fitted inhibition curve with a large enough effect (not every such curve was filed as active); inconclusive = small, poorly fitted or top-dose-only effect, or another doubt; inactive = no such curve, though single readings can be large or run the other way. No potency is given beside an inconclusive call; the fits are too rough.
Potency is the fitted concentration of half-maximal effect; tags give direction and shape of the fitted curve.

The compounds below were run against Aldehyde dehydrogenase 1A1 (Homo sapiens) (UniProt P00352) (assay: qHTS Assay for Inhibitors of Aldehyde Dehydrogenase 1 (ALDH1A1)). Settings: Purified ALDH1A1, NADH fluorescence, propionaldehyde substrate; series mostly up to 75.3 µM.
UniProt P00352, sequence (P00352 whole entry, looked up): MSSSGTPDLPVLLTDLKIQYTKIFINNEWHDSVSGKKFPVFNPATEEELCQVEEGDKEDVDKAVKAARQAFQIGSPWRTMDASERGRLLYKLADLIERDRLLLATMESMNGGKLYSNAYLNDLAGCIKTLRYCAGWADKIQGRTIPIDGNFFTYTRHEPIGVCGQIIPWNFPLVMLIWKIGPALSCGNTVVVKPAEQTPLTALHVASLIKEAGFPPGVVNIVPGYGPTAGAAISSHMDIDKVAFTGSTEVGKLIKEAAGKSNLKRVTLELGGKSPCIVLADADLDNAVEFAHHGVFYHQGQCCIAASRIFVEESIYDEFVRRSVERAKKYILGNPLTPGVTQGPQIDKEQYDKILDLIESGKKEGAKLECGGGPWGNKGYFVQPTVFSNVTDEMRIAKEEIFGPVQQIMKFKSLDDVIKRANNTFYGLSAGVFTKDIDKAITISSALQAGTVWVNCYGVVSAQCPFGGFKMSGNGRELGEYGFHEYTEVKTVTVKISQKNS
With COc1ccc(C2NC3=C(CCCC3)C(C#N)(C#N)C2(C#N)C#N)cc1 (stereo not given) the Potency was inconclusive [inhibitor, partial curve].
In the case of NC(=O)C1CCN(C(=O)N2c3ccccc3Sc3ccccc32)CC1, the Potency is reported as inconclusive [inhibitor, single point].
For CCOC(=O)c1c(NC(=S)Nc2cccnc2)sc(C)c1C, the Potency was inconclusive [inhibitor, single point].
In the case of CCc1nnc(NC(=O)CSc2ccc(-c3nc4ccc(C)cc4[nH]3)cn2)s1, the Potency is reported as inconclusive [inhibitor, partial curve].
In the case of CCOC(=O)c1sc2nc3n(c(=O)c2c1C)CCC(C)CC3 (stereo not given), the Potency is reported as active: 11.2 µM.
For COc1ccc(NC(=O)C2CCN(C(=O)c3ccccc3)CC2)c(OC)c1, the Potency was active: 1.58 µM.
In the case of Cc1onc(-c2ccccc2)c1C(=O)NC(=S)NNC(=O)c1ccc(O)cc1, the Potency is reported as inconclusive [inhibitor, single point].
With C=CCSC1=N/C(=C/c2ccsc2)C(=O)N1c1ccccc1 the Potency was inconclusive [inhibitor, partial curve].
For COC(=O)c1cccc(N2C(=O)c3cccnc3C2=O)c1, the Potency was inconclusive [inhibitor, single point].
In the case of CCOC(=O)N1CCC(NC(=O)CSc2cc(=O)n(C)c3ccccc23)CC1, the Potency is reported as “inactive”.
For Cc1cccc(Nc2nc(N)nc(CN3CCN(Cc4ccc5c(c4)OCO5)CC3)n2)c1, the Potency was active: 14.1 µM.
COc1cc2cc(C(c3nnnn3C3CCCCC3)N(C)C3CCCCC3)c(=O)[nH]c2cc1OC (stereo not given) was tested, and the Potency was inconclusive [inhibitor, partial curve].
For O=C(Nc1cnn(Cc2ccc(F)cc2)c1)c1cc(-c2ccco2)on1, the Potency was inconclusive [inhibitor, single point].
With CC(C)(C)c1ccc(/C=N/NC(=S)NC2CCCCC2)cc1 the Potency was “inactive”.
CCOC(=O)c1c(NC(=S)Nc2ccc(OC)cc2)sc2c1CCC2 was tested, and the Potency was inconclusive [inhibitor, partial curve].
With CCc1cc2cc3c(cc2nc1SCC(=O)Nc1cc(OC)c(OC)cc1C(=O)O)OCO3 the Potency was inconclusive [inhibitor, partial curve].
Cn1cccc1CNC(=O)Nc1ccccc1 was tested, and the Potency was inconclusive [inhibitor, single point].
With Cc1ccc(C(=O)C2CCOC(C)(C)C2)cc1 (stereo not given) the Potency was “inactive”.
In the case of COc1cc(C#CC#CCN2CCCCC2)ccc1O, the Potency is reported as active: 1.58 µM.
With FC(F)(F)c1nnc2c(Sc3ccc(Cl)cc3)nc3ccccc3n12 the Potency was inconclusive [inhibitor, single point].
For CCCC(=O)c1ccc(N2CCOCC2)c(F)c1, the Potency was “inactive”.
In the case of CCN(CCC(=O)Nc1cc([N+](=O)[O-])ccc1OC)Cc1ccccc1, the Potency is reported as inconclusive [inhibitor, single point].
O=C(O)CCC(=O)c1ccc2ccc3cccc4ccc1c2c34 was tested, and the Potency was inconclusive [inhibitor, partial curve].
In the case of CC(C)c1cnc(NC(=O)Cc2ccccc2)s1, the Potency is reported as “inactive”.
With COc1ccc(NC(=O)N2CCCC3(CCN(C(=O)c4cccn4C)CC3)C2)cc1 the Potency was inconclusive [inhibitor, single point].
CCN(CC)S(=O)(=O)c1ccc(N2CCOCC2)c(NC(=O)Cc2ccccc2F)c1 was tested, and the Potency was inconclusive [inhibitor, partial curve].
With O=C(c1ccco1)N1CCN(C(c2ccccc2F)c2nnnn2CC2CCCO2)CC1 (stereo not given) the Potency was inconclusive [inhibitor, single point].
In the case of CCOC(=O)Cc1csc(N)n1, the Potency is reported as “inactive”.
With C=CCNc1nc(-c2sc(NC(C)=O)nc2C)cs1 the Potency was inconclusive [inhibitor, single point].
For O=C(Cn1cc(C(=O)c2cccs2)c2ccccc21)NCC1CCCO1 (stereo not given), the Potency was “inactive”.
For Cc1ccc(NC(=S)NNC(=S)NCc2ccccc2)cc1, the Potency was active: 0.631 µM.
In the case of CCCCCCCCCc1nc(N)n[nH]1, the Potency is reported as “inactive”.
For O=C1Nc2cc(S(=O)(=O)N3CCCC3)ccc2N2CCCC12 (stereo not given), the Potency was inconclusive [inhibitor, partial curve].
With CN(C)c1cc(-c2ccc(Cl)cc2)oc(=O)c1Cl the Potency was inconclusive [inhibitor, single point].
In the case of O=C(c1scc2c1CCCC2)N1CCCCC1, the Potency is reported as “inactive”.
With CC(=O)c1c(C)[nH]c(C(=O)CSc2nnc(C3CCCCC3)n2N)c1C the Potency was inconclusive [inhibitor, single point].
With COC(=O)CC1=C(C(=O)OC)C(c2cccs2)C(C#N)=C(N)O1 (stereo not given) the Potency was inconclusive [inhibitor, partial curve].
In the case of Cc1cccc(NC(=O)CN2C(=O)N/C(=C/c3cc(C)n(-c4ccncc4)c3C)C2=O)c1, the Potency is reported as “inactive”.
For Cc1ccccc1OCC(=O)NN1C(=O)C2C3C=CC(O3)C2C1=O (stereo not given), the Potency was active: 8.91 µM.
For Cc1ccc(CS(=O)(=O)CCC(=O)N2CCOCC2)cc1, the Potency was inconclusive [inhibitor, single point].
O=C(CCS(=O)(=O)c1ccccc1Cl)NCc1ccc(F)cc1 was tested, and the Potency was inconclusive [inhibitor, partial curve, poor fit].
In the case of S=C(Nc1ccc2nc(-c3ccccn3)c(-c3ccccn3)nc2c1)N1CCCCC1, the Potency is reported as inconclusive [inhibitor, single point].
COC(=O)c1c(C)[nH]c(C=O)c1-c1ccccc1 was tested, and the Potency was inconclusive [inhibitor, single point].
COC(=O)c1cc(Br)c(=O)n(-c2cccc(F)c2)c1 was tested, and the Potency was inconclusive [inhibitor, partial curve, poor fit].
With CC(C)OC(=O)c1cccc(C(=O)Oc2ccc(Br)cc2)n1 the Potency was “inactive”.
With Cc1ccc(S(=O)(=O)/N=C(/NC(=S)Nc2cccc(C)c2)c2ccccc2)cc1 the Potency was active: 12.6 µM.
In the case of O=C(NCc1cn2ccccc2n1)c1ccco1, the Potency is reported as inconclusive [inhibitor, partial curve].
For Cc1c(C(=O)c2ccccc2)c2ccccn2c1CCc1ccccn1, the Potency was active: 11.2 µM.
With CCOc1ccc(NC(c2ccccn2)c2oc(CO)cc(=O)c2O)cc1 (stereo not given) the Potency was inconclusive [inhibitor, single point].
For O=Cc1ccc(CO)o1, the Potency was inconclusive [inhibitor, single point].
With CCc1ccc2[nH]c(=O)c(CN(CCCO)C(=O)NCc3ccccc3)cc2c1 the Potency was inconclusive [inhibitor, single point].
For Cc1nn(C)c(C)c1Nc1ccc(N2C(=O)C3C4C=CC(C4)C3C2=O)cc1[N+](=O)[O-] (stereo not given), the Potency was inconclusive [inhibitor, single point].
O=C(O)CCSCCCN1C(=O)c2cccc3cccc(c23)C1=O was tested, and the Potency was “inactive”.
With CCN1CCN(CCNC(=O)c2ccc(/C=C3/Sc4ccccc4N(Cc4cccc(C)c4)C3=O)cc2)CC1 the Potency was inconclusive [inhibitor, single point].
For CCOC(=O)C1CCCN(S(=O)(=O)c2cccc3cccnc23)C1 (stereo not given), the Potency was inconclusive [inhibitor, single point].
In the case of Cn1nc(-c2ccccc2)c(N2CCCCC2)cc1=O, the Potency is reported as active: 28.2 µM.
CC1=C(C(=O)c2ccccc2)C(c2ccc(OC(F)F)cc2)NC(=S)N1 (stereo not given) was tested, and the Potency was active: 1.12 µM.
In the case of COc1ccc(OC)c(/C=N/NC(=O)c2ccc(Cn3cc([N+](=O)[O-])cn3)o2)c1, the Potency is reported as inconclusive [inhibitor, single point].
With O=C(NCCCN1CCOCC1)c1sc2cc([N+](=O)[O-])ccc2c1Cl the Potency was active: 7.94 µM.
With Cc1ccc(N2C(=O)C3C4C=CC(CNC(=S)N5CCN(c6cccc(C)c6)C(C)C5)(O4)C3C2=O)cc1 (stereo not given) the Potency was active: 1.58 µM.
With CN(C)CCNc1nc(-c2ccco2)c2c(c1C#N)CC(C)(C)OC2 the Potency was inconclusive [inhibitor, partial curve].
For Cc1ccnc2nc(C(=O)Nc3nnc(-c4ccccc4)o3)nn12, the Potency was “inactive”.
For NC(=S)n1[nH]c(-c2ccc([N+](=O)[O-])cc2)c(N=Nc2ccc(O)cc2)c1=O, the Potency was inconclusive [inhibitor, single point].
In the case of O=C(Cn1nnc(-c2ccc(Cl)cc2)n1)NC1CC2CCC1C2 (stereo not given), the Potency is reported as “inactive”.
In the case of Cc1ccc(COn2c(-c3ccc(Cl)cc3Cl)nc3ncccc32)cc1, the Potency is reported as active: 17.8 µM.
With COc1cccc(N2C(=O)CC(N3CCC(c4nc5ccccc5[nH]4)CC3)C2=O)c1 (stereo not given) the Potency was active: 31.6 µM.
CCCN1C/C(=C/c2cccc([N+](=O)[O-])c2)C(=O)/C(=C/c2cccc([N+](=O)[O-])c2)C1 was tested, and the Potency was active: 20 µM.
CCN(CC)S(=O)(=O)c1ccc(-c2nnc(SCC(=O)c3ccc(OC)cc3)o2)cc1 was tested, and the Potency was active: 0.355 µM.
For COc1ccc(C2CC(c3ccccc3)=NN2c2ccc(N)cc2)cc1 (stereo not given), the Potency was inconclusive [inhibitor, single point].
With CCCc1nnc(SCC(=O)Nc2ccc(OC)cc2)n1N the Potency was inconclusive [inhibitor, single point].
In the case of CCc1ccc(NC2CC(=O)N(CCc3ccc(OC)c(OC)c3)C2=O)cc1 (stereo not given), the Potency is reported as active: 3.16 µM.
CC1(C)OC(=O)N(Cc2ccco2)C1(C)O (stereo not given) was tested, and the Potency was active: 17.8 µM.
With O=C(c1ccc(F)cc1)c1cnc(Nc2ccccc2)s1 the Potency was “inactive”.
For COc1cc2[nH]c(=S)nc(NCc3ccccn3)c2cc1OC, the Potency was “inactive”.
With Cc1nn(-c2ccccn2)c2c1C(c1ccsc1)C1=C(CCCC1=O)N2 (stereo not given) the Potency was inconclusive [inhibitor, partial curve].
